28 compounds from PubChem BioAssay AID1745853 (National Center for Advancing Translational Sciences (NCATS), 2022) can be followed below.

What all share (experiment): Primary Screen for Target Class Profiling of Small Molecule Inhibitors of Methyltransferases
For assay [1], the target named is Glycine N-methyltransferase (Homo sapiens) (UniProt Q14749). Conditions: purified enzyme, MTase-Glo SAH luminescence; measured here: GNMT inhibition; at 40 µM; stronger effect = lower value. The method in brief: (§1)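 Each enzyme was reacted with SAM and its substrate, with compounds tested once at 40 uM; SAH formed was read by MTase-Glo luminescence.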
Assay [2] deals with Guanidinoacetate N-methyltransferase (Homo sapiens) (UniProt Q14353). The note with it: purified enzyme, MTase-Glo SAH luminescence; measured here: GAMT inhibition; at 40 µM; stronger effect = lower value. The method in brief: as §1
The target of assay [3] is Histamine N-methyltransferase (Homo sapiens) (UniProt P50135). The note with it: purified enzyme, MTase-Glo SAH luminescence; measured here: HNMT inhibition; at 40 µM; stronger effect = lower value. The method in brief:
as §1

Assay [4] deals with Nicotinamide N-methyltransferase (Homo sapiens) (UniProt P40261). Conditions: purified enzyme, MTase-Glo SAH luminescence; measured here: NNMT inhibition; at 40 µM; stronger effect = lower value. The method in brief:
as §1

In assay [5] the target is Phenylethanolamine N-methyltransferase (Homo sapiens) (UniProt P11086). The note with it: purified enzyme, MTase-Glo SAH luminescence; measured here: PNMT inhibition; at 40 µM; stronger effect = lower value. A digest of the protocol:
as §1

Molecules are shown by their SMILES. This is one part of the list. Shown are side measurements of this screen, not its main read-out; they come without a call.
% is scaled to controls: 0 for no effect and ±100 for the full control effect.

For `COCCC1(NS(C)(=O)=O)CCN(S(=O)(=O)c2cc(OC)ccc2OC)CC1`, the activity change, negative = inhibition in assay [1] was -0.148%; in assay [2] it was 3.85%; in assay [3], 13.9%; in assay [4], 6.04%; in assay [5], 5.78%.
For the compound `CN1[C@@H](CC(=O)c2ccccc2)CCC[C@H]1C[C@H](O)c1ccccc1`, the activity change, negative = inhibition in assay [1] was -0.967%; in assay [2], 7.86%; in assay [3] it was -0.301%; in assay [4], -1.53%; in assay [5], 8.31%.
In the case of `CC(C)Cn1c(=O)c2ccc(C(=O)NC3CCCC3)cc2n2c(SCC(N)=O)nnc12`, the activity change, negative = inhibition came to 1.35% in assay [1]; 0% in assay [2]; 5.31% in assay [3]; 4.57% in assay [4]; 1.16% in assay [5].
Consider `CC(C)CCn1c(=O)c2ccccc2n2c(=O)n(Cc3ccc(F)cc3Cl)nc12`, for which the activity change, negative = inhibition in assay [1] was -0.087%; in assay [2], 0%; in assay [3], 0.145%; in assay [4], -6.77%; in assay [5], -0.582%.
`COc1ccc2cc3n(c2c1)CC(C)(C(=O)NC1CCCCCC1)N(Cc1ccco1)C3=O` (stereo not given): the activity change, negative = inhibition in assay [1] was 3.18%; in assay [2], 0.812%; in assay [3], 8.78%; in assay [4], -9.82%; in assay [5], -1.34%.
Take `CCN(CC)C(=O)[C@@H]1CCC[C@@H](NC(=O)c2ccc(OC)cc2)CN(C)C(=O)C1`: the activity change, negative = inhibition in assay [1] was -6.55%; in assay [2], -12.3%; in assay [3], -3.84%; in assay [4] it was -10.5%; in assay [5], -9.94%.
The like results for `CCc1ccc(CN2C(=O)c3cc(C(=O)OC)nn3CC2(C)C(=O)NC2CCCCC2)cc1` (stereo not given) were, in that order, 1.14%, 0.186%, 5.16%, 1.15% and 2.88%.
As to `O=C(Cn1nc2n(Cc3ccc(F)cc3)c(=O)c3ccccc3n2c1=O)Nc1ccc(F)cc1`, the activity change, negative = inhibition in assay [1] is -0.649%; in assay [2] it was -4.14%; in assay [3], 4.42%; in assay [4], -8.99%; in assay [5], -1.93%.
The like results for `Cc1nc2ncccn2c1C(=O)N1CCC2(CCCN(C)C2=O)C1` (stereo not given) were, in that order, -0.982%, -4.84%, 0.105%, -3.65% and -5.34%.
With `CCC(CC)CC1(C(=O)Nc2ccccc2SC(=O)C(C)C)CCCCC1`, the activity change, negative = inhibition in assay [1] was -5.21%; in assay [2] it was -11.7%; in assay [3], -2.42%; in assay [4], -28.9%; in assay [5] it was -8.72%.
Consider `O=C(Cn1ccc2cc(S(=O)(=O)N3CCCCC3)ccc21)NCCCN1CCOCC1`, for which the activity change, negative = inhibition in assay [1] is 6.88%; in assay [2] it was 2.85%; in assay [3], -3.24%; in assay [4], 4.12%; in assay [5], 2.69%.
Turning to `CCCn1c(=O)c2ccc(C(=O)NCC(C)C)cc2n2c(=O)n(Cc3c(F)cccc3Cl)nc12`, the activity change, negative = inhibition in assay [1] is -1.45%; in assay [2] it was 0.941%; in assay [3], -0.154%; in assay [4], 2.44%; in assay [5], 1.7%.
Consider `CCc1ccc(N2C(=O)c3cc4ccc(OC)cc4n3CC2(C)C(=O)NC2CCCC2)cc1` (stereo not given), for which the activity change, negative = inhibition is 1.26% in assay [1]; 1.53% in assay [2]; 1.99% in assay [3]; -2.21% in assay [4]; -5.02% in assay [5].
The like results for `CCC(C)NC(=O)Cn1nc2n(CC(C)C)c(=O)c3ccc(C(=O)NC4CCCCC4)cc3n2c1=O` (stereo not given) were, in that order, 0.624%, 4.83%, -0.005%, -1.34% and -0.101%.
With `O=C(CCc1cc2n(n1)CCCN(C(=O)CCc1ccsc1)C2)NC1CC1`, the activity change, negative = inhibition is -6.08% in assay [1]; -9.6% in assay [2]; -7% in assay [3]; -13.9% in assay [4]; -12.2% in assay [5].
Take `CCOC(=O)c1cc2n(n1)CC(C)(C(=O)NCCC(C)C)N(c1ccc(OCC)cc1)C2=O` (stereo not given): the activity change, negative = inhibition was 1.74% in assay [1]; 0% in assay [2]; 2.77% in assay [3]; 7.11% in assay [4]; -0.819% in assay [5].
As to `CCN(CCCNC(=O)CCc1nnc2n(Cc3ccc(C)cc3)c(=O)c3ccccc3n12)c1cccc(C)c1`, the activity change, negative = inhibition was -7.66% in assay [1]; 1.52% in assay [2]; -14.2% in assay [3]; -3.62% in assay [4]; -13.5% in assay [5].
In the case of `CCC(C)NC(=O)c1ccc2c(=O)n(C)c3nnc(SCc4cccc(C)c4)n3c2c1` (stereo not given), the activity change, negative = inhibition in assay [1] was 5.35%; in assay [2] it was 0%; in assay [3], 3.92%; in assay [4], 0.219%; in assay [5], 6.15%.
Turning to `C[C@@H]1CN(c2nc(-c3ccccc3)no2)CC[C@@]1(O)C1CCC1`, the activity change, negative = inhibition is -8.97% in assay [1]; -7.22% in assay [2]; -7.84% in assay [3]; -9.95% in assay [4]; -11.2% in assay [5].
Regarding `O=C(CCc1ccsc1)N1CCC2(CCCN(Cc3cccnc3)C2=O)C1` (stereo not given), the activity change, negative = inhibition is -7.6% in assay [1]; -9.28% in assay [2]; -4.43% in assay [3]; -11.1% in assay [4]; -6.04% in assay [5].
As for `O=C(Nc1ccn(Cc2c(F)cccc2C(F)(F)F)n1)c1c(F)cccc1F`, the activity change, negative = inhibition in assay [1] was -1.01%; in assay [2], -2.04%; in assay [3], 11.3%; in assay [4], -12.8%; in assay [5], 1.07%.
The matching figures for `C=C1CCC2C(C)(C(=O)O)CCCC2(C)C1CC/C(=C\CO)CO` (stereo not given): -0.433%, 3.43%, 8.25%, -19% and 2.9%.
For `O=c1cc(N2CCOCC2)oc2c(NCc3ccc(F)cc3)nccc12`, the activity change, negative = inhibition in assay [1] is -6.24%; in assay [2], -6.43%; in assay [3], -2.04%; in assay [4], -23.4%; in assay [5], -6.9%.
For `CCOc1ccccc1CN1C(=O)c2c(C(=O)OC)ncn2CC1(C)C(=O)NCc1ccccc1` (stereo not given), the activity change, negative = inhibition in assay [1] is 1.02%; in assay [2] it was 0%; in assay [3], -5.57%; in assay [4], 3.74%; in assay [5], 0.954%.
`O=C(NC1CC1)[C@@H]1C[C@H](Oc2ccccc2)CN1C(=O)C1CCC1`: the activity change, negative = inhibition in assay [1] was -3.31%; in assay [2], -7.36%; in assay [3] it was -1.2%; in assay [4], -6.94%; in assay [5] it was -3.46%.
Consider `CC(C)C1=CC2C(CC[C@]2(C)O)[C@](C)(O)CC1` (stereo not given in full), for which the activity change, negative = inhibition in assay [1] was 4.38%; in assay [2] it was 4.95%; in assay [3], 13.6%; in assay [4] it was -8.23%; in assay [5], 5.36%.
Turning to `C[C@@H]1CCC2C(C)(C)[C@H](O)CC[C@]2(C)[C@@]12Cc1c(O)cc3c(c1O2)CN(CCO)C3=O` (stereo not given in full), the activity change, negative = inhibition is 0% in assay [1]; 7.14% in assay [2]; -21.5% in assay [3]; -9.43% in assay [4]; 3.87% in assay [5].
Regarding `CC1(O)CC(c2nc(-c3ccc4ccc(-c5ccccc5)nc4c3)c3c(N)nccn23)C1` (stereo not given), the activity change, negative = inhibition in assay [1] is -5.8%; in assay [2], 6.11%; in assay [3], -40.6%; in assay [4], -11.2%; in assay [5], -0.492%.
